Experimental data from the RNAGym collection of RNA variant scans (doi:10.7554/elife.90254).
The source gives no read counts; variants with many changes may rest on few reads.

B1: LINE1-mini (parent)
chain: GGCAGAGCUCAACACAGCGUGGCAAAGUGGCUGUGGCUAGACUGCC

Variants of: B1
Assay: self-cleavage, relative activity (ratio to wild type); higher = more cleavage; in vitro, sequencing; the parent is a self-cleaving ribozyme

Variant | self-cleavage
A12G U32A U43A | 0.03
A12G U32C U38A C42U | 0.15
A12G U34A A41G | 0
A12G U34C A41G | 0.01
A12G U34G C46A | 0.01
A12G U38A A41G | 0.03
A12G U38A G44C | 0
A12G U38C C45U | 0.07
A12G U38C G40A C42G C45G | 0.02
A12G U38G C45U | 0.02
A12G U38G C46U | 0.04
A12U A14C A24U C37A U43C | 0.01
A12U A14C C15A G22C | 0.02
A12U A14C G21C | 0.05
A12U A14G A25G C37U | 0
A12U A14G A26U U32G C45U | 0.02
A12U A14G G27A U28C | 0.11
A12U A14G G27U G36A U43A C46U | 0.01
A12U A14U A24C A41G C45U | 0.04
A12U A14U G36C C37A C42G | 0.11
A12U A14U U34A U43A | 0.02
A12U A16C G19C G33C A39U A41G | 0
A12U A16C G21C U28A G30C G35A | 0.02
A12U A16C U34C | 0.03

Variant | self-cleavage
A12U A16G G19C A26G | 0.04
A12U A16G G22U A41U | 0.04
A12U A16G U20C A41C C45A | 0.07
A12U A16U G27C | 0
A12U A24C A39G G44A | 0.01
A12U A24C G27A | 0.38
A12U A24C G27C C37G | 0
A12U A24C U34C | 0.02
A12U A24C U34G | 0.05
A12U A24G C46A | 0.1
A12U A24U U28A G35U G36U | 0.18
A12U A25U U34C G36U U38A A41C | 0
A12U A26G G29A G30C C42U | 0.09
A12U A26G G33U | 0.16
A12U A26G G36C | 0.04
A12U A26G G40C | 0.01
A12U A26U G36U | 0.05
A12U A41U C46G | 0.11
A12U C13A A26C | 0.05
A12U C13A A26C G27C U38G | 0
A12U C13A G17U | 0.2
A12U C13A G19U C31A C42A | 0.08
A12U C13A G21A G33C U34A | 0.09
A12U C13A U20C | 0.05

Variant | self-cleavage
A12U C13G C45A | 0.04
A12U C13G G17A G33C G40A C42A | 0.01
A12U C13G G21U A25U C37G U43A | 0.02
A12U C13G G22A G27A A41U C46G | 0.28
A12U C13G G30A G44U | 0.13
A12U C13G U20G A24U G27A C45A | 0.02
A12U C13U C42U | 0.05
A12U C13U G19U A25C U38G | 0.01
A12U C13U G22U A24G C31U G40A U43A | 0.03
A12U C13U U38A C42A | 0.09
A12U C15A A16U U20C G29C C46A | 0.01
A12U C15A A41C | 0.02
A12U C15A C18A G30U U38C C45A | 0.04
A12U C15A C18U | 0.06
A12U C15A C46G | 0.06
A12U C15A G19U A24C G36A | 0.18
A12U C15A G29A C42A | 0.02
A12U C15A U32C C37A U38G A39G | 0
A12U C15G A39G | 0.04
A12U C15G A41G | 0.15
A12U C15G C18A A41C | 0.03
A12U C15G C42G | 0.01
A12U C15G C46U | 0.02
A12U C15G G29A | 0.02

Variant | self-cleavage
A12U C15G G33A G35A | 0.01
A12U C15G G36A | 0.01
A12U C18A C37U | 0.01
A12U C18A G21A A25U G44C | 0.03
A12U C18A G33A | 0.01
A12U C18G C31U C37U | 0.04
A12U C18G C37A | 0.04
A12U C18G G21C A26U G33U | 0.03
A12U C18G G22C G44A | 0.06
A12U C18G G27A G40U | 0.09
A12U C18G G29U | 0.41
A12U C18G U20C | 0.02
A12U C18G U20G G35C | 0.02
A12U C18U A39U | 0.03
A12U C18U G27C G44C | 0.05
A12U C18U G30U | 0.08
A12U C18U U20G G22A G30A A41C | 0
A12U C23A A26G U28A G30C | 0.19
A12U C23A C37U | 0
A12U C23A G30A | 0.32
A12U C23A U28C C31U | 0.5
A12U C23G C45U | 0.38
A12U C23G G29U | 0.09
A12U C23G G30U G33A | 0

Variant | self-cleavage
A12U C23G U28G | 0.02
A12U C23G U28G G30U U38C C42A | 0.02
A12U C23G U34G | 0.02
A12U C23U C31G G33A | 0.11
A12U C23U U38G | 0
A12U C31A A39G | 0
A12U C31A G33U | 0.05
A12U C31A G35C | 0.02
A12U C31G G33A U34G C45U | 0.01
A12U C37A C46G | 0.02
A12U G17A C18U U34G | 0.01
A12U G17A C23A G30C | 0
A12U G17A G22A G40A G44C C46U | 0.01
A12U G17A G22C A26G | 0.07
A12U G17A G27U G40A | 0.01
A12U G17A U38A | 0.02
A12U G19A C23A | 0.18
A12U G19A G33U | 0.06
A12U G19A U34A G36A C37A | 0.56
A12U G19A U38C | 0.25
A12U G19C C23A C45A | 0.04
A12U G19C C31A | 0.06
A12U G19C G27C A41U | 0.02
A12U G19C G29U C31G G40A | 0

Variant | self-cleavage
A12U G19C G30U | 0.26
A12U G19U C23A A41U | 0.08
A12U G19U G30U | 0.2
A12U G19U U28C G30U | 0.31
A12U G21A G27U | 0.39
A12U G21A G40U | 0.55
A12U G21A U32A G35C U43C | 0.02
A12U G21C A26U U34G G35C C37A | 0.01
A12U G21U C23G C31G | 0.03
A12U G21U C45A | 0.26
A12U G21U G27C | 0.16
A12U G21U G33C | 0.02
A12U G21U U38A | 0.1
A12U G22A G29U | 0.31
A12U G22A U32C | 0.07
A12U G22C A24U G36U | 0.06
A12U G22C C37U A41U | 0
A12U G22C U34A | 0
A12U G22U C45U | 0.2
A12U G22U G29C | 0.05
A12U G22U G33U G36A C37A | 0.07
A12U G22U G40U | 0.08
A12U G22U U28C G36U | 0
A12U G22U U34G | 0.01

Variant | self-cleavage
A12U G27A A39U | 0.13
A12U G27A G33C | 0.01
A12U G27A G44A | 0.23
A12U G27A U34G A39U | 0.24
A12U G27C G30C U34A C42G | 0.02
A12U G27C G35C C42G | 0.01
A12U G27U C42G | 0.01
A12U G27U U38C | 0.05
A12U G29A G33A U34C C42U | 0.05
A12U G29A G40U | 0.06
A12U G29A U34G G35C G36A G40C C45U | 0.03
A12U G29C A41C G44C C45G | 0.06
A12U G29C A41U | 0.02
A12U G29C C31U | 0.2
A12U G29C G35C | 0.07
A12U G29C G40A | 0.06
A12U G29U U38G | 0.02
A12U G30A C37A U38A | 0.04
A12U G30C C31U | 0.48
A12U G30C C46U | 1
A12U G30C G36A C37A | 0.02
A12U G30U G40C | 0.14
A12U G30U U32A A39G A41G | 0.01
